# From PubChem BioAssay AID485344 (National Center for Advancing Translational Sciences (NCATS), 2010)
# Hit rate of the full screen: of about 340,000 compounds, about 6,900 (2%) were called active. No stated cut-off is given here; in the data, active means inhibition above about 30%; inactive means below that, where a call was filed. The entries are a selection whose mix differs from that of the whole data set. The source gives no active or inactive call for entries shown without one.
# Molecular target: D(2) dopamine receptor (Homo sapiens) (UniProt P14416)
# Assay: HTS Assay for Allosteric Antagonists of the Human D2 Dopamine Receptor: Primary Screen for Antagonists; further: 0% is about no effect
# Conditions: HEK293 TREx D2 cells, calcium flux, dopamine EC80; at 10 µM; stronger effect = higher value
# Method in brief: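 In this primary screen, negative modulation is detected by tracking calcium flux after an EC80 dopamine challenge in inducible HEK293 T-REx D2 cells preexposed to test compound for 180 s.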
# Sequence of UniProt P14416 (P14416 whole entry, looked up): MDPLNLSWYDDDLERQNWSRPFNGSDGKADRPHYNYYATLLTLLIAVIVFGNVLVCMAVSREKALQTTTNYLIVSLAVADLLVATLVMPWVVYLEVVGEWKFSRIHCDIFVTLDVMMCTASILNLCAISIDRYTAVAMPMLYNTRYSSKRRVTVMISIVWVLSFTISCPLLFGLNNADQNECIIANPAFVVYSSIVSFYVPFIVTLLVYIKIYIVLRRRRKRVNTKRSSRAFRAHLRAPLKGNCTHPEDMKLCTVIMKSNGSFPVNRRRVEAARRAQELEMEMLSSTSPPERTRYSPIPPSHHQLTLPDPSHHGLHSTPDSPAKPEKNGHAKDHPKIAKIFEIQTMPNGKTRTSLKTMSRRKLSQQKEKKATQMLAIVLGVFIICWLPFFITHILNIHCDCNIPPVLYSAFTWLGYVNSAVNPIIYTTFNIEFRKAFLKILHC
row,SMILES,inhibition
1,CC(CNc1nc2ccccc2c2nc(-c3ccccc3)nn12)c1ccccc1 (configuration not stated),14.4%
2,COc1ccc(NC(=O)c2cc3c(=O)n(C)c4cc(Cl)ccc4c3s2)cc1Cl,-4.11%
3,CC(=O)Nc1cccc(NC(=O)CSc2cn(CC(=O)N3CCCC3)c3ccccc23)c1,12%
4,CCCS(=O)(=O)c1nc(S(=O)(=O)c2ccc(C)cc2)c(NCC(C)C)s1,-5.65%
5,CC1CCN(S(=O)(=O)c2ccc3c(ccc(=O)n3CC(=O)NCc3ccccc3)c2)CC1,23.9%
6,Cc1ccc(CCNC(=O)c2oc(=O)c3ccccc3c2-c2ccc(C)cc2)cc1,5.02%
7,CCOC(=O)c1c(-c2ccc(Br)cc2)csc1NC(=O)c1ccc(C(C)(C)C)cc1,9.17%
8,Cc1ccc(CNC(=O)c2cc(=O)c3cc(C)c(C)cc3o2)cc1,-18.4%
9,CC1CCCCN1Cc1c(O)ccc2c(=O)c(-c3ccc(Cl)cc3)coc12 (configuration not stated),1.02%
10,COc1ccc(CNC(=O)C2CCCN(C(=O)c3cnn(-c4ccc(F)cc4)c3-n3cccc3)C2)cc1 (configuration not stated),-0.845%
11,O=C(NCCS(=O)(=O)N1CCN(c2ccc(F)cc2)CC1)c1ccccc1Br,13%
12,CCOc1ccc(CC(=O)NCCc2sc(-c3cccc(F)c3)nc2C)cc1,-27.5%
13,COc1ccc(NC(=O)c2cc(=O)c3cc(C)cc(C)c3o2)cc1,-13.8%
14,Cc1nc2c(-c3ccccc3)c(C)[nH]n2c(=O)c1Cc1ccc(Br)cc1,-11.7%
15,CCOc1cccc2sc(NC(=O)c3ccc(S(=O)(=O)N4CCCCC4)cc3)nc12,7.33%
16,Cc1ccccc1OCC(=O)Nc1ccc2[nH]c(=O)sc2c1,-8.82%
17,COc1ccc(CCNC(=O)c2nc(SCc3ccc(F)cc3)ncc2Cl)cc1OC,1.48%
18,CCCCCCC(=O)Nc1cc2nc3c(nc2cc1C)c(=O)n(C)c(=O)n3C,10.8%
19,Cc1ccc(CCNC(=O)C(C)n2nc(C)c3c(C)n(-c4ccc(C)cc4)nc3c2=O)cc1 (configuration not stated),7.07%
20,CCOC(=O)N1CCC(N2CCN(Cc3ccccc3)C(CCO)C2)CC1 (configuration not stated),active: 76.2%
21,CCc1ccc(C2CC(=O)c3c([nH]c(C(=O)OC4CCCCCC4)c3C)C2)cc1 (configuration not stated),20.5%
22,Cc1c(C)n(C)c2ccc(C(=O)NCCCN3CCN(c4ccccc4F)CC3)cc12,active: 98.3%
23,O=C(CSc1nc(-c2ccco2)nc2cc(=O)[nH]n12)Nc1ccc(F)cc1,-6.69%
24,COc1ccc(Nc2cc(C(=O)NCCCN3CCOCC3)c3ccccc3n2)cc1OC,active: 30.1%
25,CCN1CCN(Cc2nc3cc(NC(=O)c4cccc([N+](=O)[O-])c4)ccc3n2CC)CC1,-15.1%

row,SMILES,inhibition
1,COc1ccc(C2CC(=O)Nc3cc4c(cc32)OCO4)c(OC)c1 (configuration not stated),8.58%
2,CCc1ccc(NC(=O)Cn2c(C(=O)OC)cc3oc(C)cc32)cc1,-9.13%
3,Cc1ccc(NC(=O)C(Cc2ccccc2)NS(=O)(=O)c2ccc3c(c2)oc(=O)n3C)cc1C (configuration not stated),-25.6%
4,CC(C)(C)C(=O)Cn1c(=O)n(CCCCCC(=O)NCc2ccccc2Cl)c(=O)c2sccc21,11.3%
5,CC(=O)c1ccc(N2CCN(C(=O)Nc3cn(CC(C)C)c(=O)c4ccccc34)CC2)cc1,21.9%
6,CC1Sc2ccc(S(=O)(=O)N3CCC(C(=O)Nc4cccc(Cl)c4)CC3)cc2NC1=O (configuration not stated),active: 69.5%
7,CCOC(=O)c1c(C)[nH]c(C)c1S(=O)(=O)NCC(=O)Nc1cc(Cl)ccc1OC,-4.75%
8,CSc1ccccc1NC(=O)Nc1cccc(Cl)c1,active: 36.2%
9,CC(=O)c1ccc(NC(=O)COc2ccccc2-c2nc(C(C)C)no2)cc1,10.2%
10,COc1ccc(C)cc1Nc1c2c(nc3ccccc13)CCC2,-17.6%
11,O=C(COc1ccccc1)Nc1nnc2n1CCS2,13.4%
12,Cc1ccc(NC(=O)c2c(Nc3ccccc3C)sc(C(=O)c3ccccc3)c2N)cc1,9%
13,CCOC(=O)c1ccc(OCC2c3cc(OC)c(OC)cc3CCN2C(=O)Cc2ccc(F)cc2)cc1 (configuration not stated),-14.6%
14,CCc1nn(CC(=O)NC(C)C)c(=O)c2cc3cc(F)ccc3n12,2.9%
15,CC(=O)N1CCCc2cc(S(=O)(=O)N(C)CC(=O)Nc3ccc(F)cc3Cl)ccc21,1.44%
16,CSc1ccc(/C=C/C(=O)OCC(=O)c2ccc[nH]2)cc1,active: 50.4%
17,CN(C)c1nc(Oc2ccc(=O)[nH]n2)nc(N2CCCCC2)n1,active: 31.2%
18,CCOc1ccc(N(CC(=O)Nc2ccc(F)cc2F)S(=O)(=O)c2c(C)[nH]c(=O)[nH]c2=O)cc1,1.9%
19,CN1C(=O)c2ccccc2Sc2ccc(NC(=O)Nc3ccccc3F)cc21,10.2%
20,CCOCCCn1c(=N)c(S(=O)(=O)c2ccc(C)cc2)cc2c(=O)n3cccc(C)c3nc21,3.24%
21,COc1ccc(CN(CCC(c2ccc3c(c2)OCO3)c2ccccc2OC)C(C)=O)cc1 (configuration not stated),-7.01%
22,Cc1cccc(C)c1Nc1c(-c2ccsc2)nc2ccccn12,2.5%
23,COc1ccc(CNC(=O)CCn2nc(C)c3c(C)n(-c4ccccc4)nc3c2=O)cc1OC,-12.5%
24,O=C(CCN1CCN(c2ccccc2)CC1)NNC(=S)Nc1ccccc1,active: 61.2%
25,Cc1cccn2c(=O)c(/C=C(\C#N)c3nc4ccccc4n3C)c(Oc3ccc(Br)cc3)nc12,-21.4%

row,SMILES,inhibition
1,O=C(CN1CCN(c2ccc(Cl)cc2)CC1)Nc1ccc(F)cc1F,3.33%
2,Cc1ccc(NC(=O)CCCn2nc(C)c3c(C)n(-c4ccccc4)nc3c2=O)cc1Cl,2.91%
3,Cc1ccc(NC(=O)c2sc3ccccc3c2Cl)cc1,15%
4,Cc1ccc(CN2C(=O)c3ccccc3C2C(=O)NC2CCCCCC2)cc1 (configuration not stated),-9.03%
5,O=C(Nc1cccc(C(=O)N2CCCCC2)c1)c1nsc2ccccc12,-15.2%
6,CCc1ccc(-n2nc(C)c3c(C(=O)Nc4cccc(C(F)(F)F)c4)cc(C)nc32)cc1,-4%
7,Cc1cc(O)c(C(c2ccc(F)cc2)N2CCCCC2)c(=O)n1Cc1ccco1 (configuration not stated),-9.19%
8,Cc1cc(Nc2cccc(C(F)(F)F)c2)nc2ccc(NC(=O)c3ccc(N(C)C)cc3)cc12,-5.11%
9,CCOc1ccccc1NC(=O)c1c(C)cc(C)nc1SCC(=O)c1cccc(OC)c1,-4.86%
10,Cc1cccc(/C=C/c2onc(C)c2S(=O)(=O)N2CCC(C(=O)N3CCC(C)CC3)CC2)c1,-16.8%
11,Cc1ccc(C(C)C)c(OCC(=O)Nc2c(C(=O)c3ccccc3)oc3ccccc23)c1,0.0481%
12,CCC(CC)C(=O)Nc1cccc(-c2nc3cccnc3s2)c1C,11.6%
13,COc1ccccc1-c1nc(S(=O)(=O)c2ccc(Cl)cc2)c(N2CCCCCC2)o1,-0.27%
14,CCOc1ccc(CNC(=O)C2CCCN(c3nc4c(C)cc(C)cc4s3)C2)cc1 (configuration not stated),23.7%
15,COc1ccc(-n2nc3ccc(NC(=O)c4cc5ccccc5o4)cc3n2)cc1Cl,6.87%
16,CCOc1cc(C2C(C(=O)OC)=C(C)NC3=C2C(=O)c2ccccc23)ccc1O (configuration not stated),21.7%
17,O=C(Nc1ccc(N2CCC(N3CCCCC3)CC2)c(C(=O)O)c1)c1ccc(Br)cc1,-23.6%
18,CC1(C)O[C@H]2[C@@H](O1)[C@@H](C(=O)Nc1ccccc1O)O[C@@H]1OC(C)(C)O[C@@H]12,-4.13%
19,CCc1ccc(-c2nn(CC(=O)NC3CCCC3)c3c2cnc2ccc(C)cc23)cc1,9.01%
20,O=C(CN1C(=O)COc2ccc(S(=O)(=O)N3CCCCC3)cc21)NCc1ccc(F)cc1,19.1%
21,CCCOc1ccc(C(=O)Nc2cccc(-c3nc4ccccc4[nH]3)c2)cc1,0.0377%
22,Cc1ccc(-c2nc(C)c(CCNC(=O)C(=O)Nc3ccc4c(c3)OCCO4)s2)cc1,5.86%
23,Cc1ccc(NC(=O)Cn2c(=O)n(Cc3ccccc3)c(=O)c3c(C)c(C)sc32)c(C)c1,-6.93%
24,COc1cc2c(cc1Cl)/C(=C\CCN(C)C)c1ccccc1S2,active: 36.5%
25,Cc1cccc(C)c1OCC(=O)NCC1(N2CCOCC2)CCCCC1,14.9%

row,SMILES,inhibition
1,CCc1ccccc1NC(=O)C1=CC(c2ccc(OC)c(OC)c2)=NS(=O)(=O)N1C,23.6%
2,CCOC(=O)c1ccc(-n2c(N)c(C(=O)OC)c3nc4ccccc4nc32)cc1,12.3%
3,COc1ccc(OC(=O)c2nc(SCc3ccc(C)cc3)ncc2Cl)cc1,-2.67%
4,CC1CCCN(c2csc3ccc(F)cc3c2=O)C1 (configuration not stated),-17.6%
5,CC1(C)C(=O)N(CC(=O)Nc2ccc(Cl)cc2)c2ccccc21,3.98%
6,CN1CCc2c(c3ccccc3n2C)C1,active: 61.4%
7,CCC(C)NC(=O)c1cc2c(Cl)nc3ccc(C)cc3c2s1 (configuration not stated),-11%
8,CCc1nn2c(=O)cc(COC(=O)c3ccccc3NC(=O)COc3ccccc3C)nc2s1,1.12%
9,COc1ccc(-c2nn3c(-c4ccc(OC)cc4)nnc3c3ccccc23)cc1,-0.124%
10,Cc1ccc2c(c1)cc(C(=O)Nc1ccccc1C)n2C,7.46%
11,CC(CCc1ccccc1)NC(=O)CN1CCc2ccccc2C1 (configuration not stated),active: 67.9%
12,COc1cc(C2CC(=O)Nc3c2c(=O)[nH]c2nc4ccccc4n32)ccc1O (configuration not stated),10.7%
13,CCOC(=O)C1CCN(C(c2ccccc2)c2c(O)cc(C)n(Cc3ccco3)c2=O)CC1 (configuration not stated),-1.38%
14,O=C(Nc1ccc(C(F)(F)F)cc1)C1CCC(CNS(=O)(=O)c2cccc3nsnc23)CC1 (configuration not stated),-5.79%
15,CCc1c(C)c2ccc3c(c2oc1=O)CN(Cc1ccccc1)CO3,-10.3%
16,COc1ccc(OCC(=O)Nc2nnc(S(=O)(=O)N3CCCCCC3)s2)cc1,12.9%
17,Cc1ccc(-n2c(CCC(=O)O)ccc2-c2cccs2)cc1C,-15.9%
18,O=C(c1ccco1)N(Cc1cccnc1)c1nc2ccc(F)cc2s1,0.443%
19,CCc1ccc(S(=O)(=O)c2cn(C)c3cc(N4CCCCC4C)c(F)cc3c2=O)cc1 (configuration not stated),-2.92%
20,Cc1ccc(S(=O)(=O)NCC(c2ccc(N(C)C)cc2)N2CCCC2)cc1 (configuration not stated),2.49%
21,COc1cc(OC)cc(-c2nc3n(n2)C(c2ccccc2F)C(C(=O)Nc2cccnc2)=C(C)N3)c1 (configuration not stated),0.833%
22,CCc1ccc(C2C(C(=O)Nc3ccccc3)=C(C)Nc3c(C(=O)Nc4ccc(C)cc4)cnn32)cc1 (configuration not stated),-9.33%
